# Data from the supplement of paper PMC8728848.
# The list shows a part of the results.
# B1: Factor H (Homo sapiens), P08603 (protein)
# chain: MRLLAKIICLMLWAICVAEDCNELPPRRNTEILTGSWSDQTYPEGTQAIYKCRPGYRSLGNVIMVCRKGEWVALNPLRKCQKRPCGHPGDTPFGTFTLTGGNVFEYGVKAVYTCNEGYQLLGEINYRECDTDGWTNDIPICEVVKCLPVTAPENGKIVSSAMEPDREYHFGQAVRFVCNSGYKIEGDEEMHCSDDGFWSKEKPKCVEISCKSPDVINGSPISQKIIYKENERFQYKCNMGYEYSERGDAVCTESGWRPLPSCEEKSCDNPYIPNGDYSPLRIKHRTGDEITYQCRNGFYPATRGNTAKCTSTGWIPAPRCTLKPCDYPDIKHGGLYHENMRRPYFPVAVGKYYSYYCDEHFETPSGSYWDHIHCTQDGWSPAVPCLRKCYFPYLENGYNQNYGRKFVQGKSIDVACHPGYALPKAQTTVTCMENGWSPTPRCIRVKTCSKSSIDIENGFISESQYTYALKEKAKYQCKLGYVTADGETSGSITCGKDGWSAQPTCIKSCDIPVFMNARTKNDFTWFKLNDTLDYECHDGYESNTGSTTGSIVCGYNGWSDLPICYERECELPKIDVHLVPDRKKDQYKVGEVLKFSCKPGFTIVGPNSVQCYHFGLSPDLPICKEQVQSCGPPPELLNGNVKEKTKEEYGHSEVVEYYCNPRFLMKGPNKIQCVDGEWTTLPVCIVEESTCGDIPELEHGWAQLSSPPYYYGDSVEFNCSESFTMIGHRSITCIHGVWTQLPQCVAIDKLKKCKSSNLIILEEHLKNKKEFDHNSNIRYRCRGKEGWIHTVCINGRWDPEVNCSMAQIQLCPPPPQIPNSHNMTTTLNYRDGEKVSVLCQENYLIQEGEEITCKDGRWQSIPLCVEKIPCSQPPQIEHGTINSSRSSQESYAHGTKLSYTCEGGFRISEENETTCYMGKWSSPPQCEGLPCKSPPEISHGVVAHMSDSYQYGEEVTYKCFEGFGIDGPAIAKCLGEKWSHPPSCIKTDCLSLPSFENAIPMGEKKDVYKAGEQVTYTCATYYKMDGASNVTCINSRWTGRPTCRDTSCVNPPTVQNAYIVSRQMSKYPSGERVRYQCRSPYEMFGDEEVMCLNGNWTEPPQCKDSTGKCGPPPPIDNGDITSFPLSVYAPASSVEYQCQNLYQLEGNKRITCRNGQWSEPPKCLHPCVISREIMENYNIALRWTAKQKLYSRTGESVEFVCKRGYRLSSRSHTLRTTCWDGKLEYPTCAKR
# What was measured:
# Test in all cases: glycan array binding signal (z-score within array); higher = stronger binding
# Settings in all cases: glycan notation: IUPAC condensed, linker removed
# [1] = molecular target: Neu5Ac(a2-3)Gal(b1-4)[Fuc(a1-3)]GlcNAc
# Method in brief: (§1)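 From the Consortium for Functional Glycomics database, 3228 arrays were curated, keeping only those whose protein sequence was available. Binding is given as a within-array Z-score averaged across arrays sharing a protein sequence and across linkers. Negative Z-scores can be read as non-binding.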
# [2] = molecular target: Neu5Ac(a2-3)Gal(b1-4)[Fuc(a1-3)]GlcNAc(b1-3)Gal
# Method in brief: as §1
# [3] = molecular target: Neu5Ac(a2-3)Gal(b1-4)[Fuc(a1-3)]GlcNAc(b1-3)Gal(b1-4)GlcNAc
# Method in brief: as §1
# [4] = molecular target: Neu5Ac(a2-3)Gal(b1-4)[Fuc(a1-3)]GlcNAc(b1-3)Gal(b1-4)[Fuc(a1-3)]GlcNAc(b1-3)Gal(b1-4)[Fuc(a1-3)]GlcNAc
# Method in brief: as §1
# [5] = molecular target: Neu5Ac(a2-3)Gal(b1-4)[Fuc(a1-3)]GlcNAc(b1-6)[Gal(b1-3)]GalNAc
# Method in brief: as §1
# [6] = molecular target: Neu5Ac(a2-3)Gal(b1-4)[Fuc(a1-3)]GlcNAc6S
# Method in brief: as §1
# [7] = molecular target: Neu5Ac(a2-3)Gal6S(b1-4)GlcNAc
# Method in brief: as §1
# [8] = molecular target: Neu5Ac(a2-3)Gal6S(b1-4)[Fuc(a1-3)]GlcNAc
# Method in brief: as §1
# Neu5Ac(a2-3)GalNAc = molecular target: Neu5Ac(a2-3)GalNAc
# Method in brief: as §1
# [9] = molecular target: Neu5Ac(a2-3)GalNAc(b1-4)GlcNAc
# Method in brief: as §1
# [10] = molecular target: Neu5Ac(a2-3)[GalNAc(b1-4)]Gal(b1-4)Glc
# Method in brief: as §1
# [11] = molecular target: Neu5Ac(a2-3)[GalNAc(b1-4)]Gal(b1-4)GlcNAc
# Method in brief: as §1
# [12] = molecular target: Neu5Ac(a2-3)[Neu5Ac(a2-6)]GalNAc
# Method in brief: as §1
# Neu5Ac(a2-6)Gal = molecular target: Neu5Ac(a2-6)Gal
# Method in brief: as §1
# Neu5Ac(a2-6)Gal(b1-4)Glc = molecular target: Neu5Ac(a2-6)Gal(b1-4)Glc
# Method in brief: as §1
# [13] = molecular target: Neu5Ac(a2-6)Gal(b1-4)GlcNAc
# Method in brief: as §1
# [14] = molecular target: Neu5Ac(a2-6)Gal(b1-4)GlcNAc(b1-2)Man(a1-3)[Gal(b1-4)GlcNAc(b1-2)Man(a1-6)]Man(b1-4)GlcNAc(b1-4)GlcNAc
# Method in brief: as §1
# [15] = molecular target: Neu5Ac(a2-6)Gal(b1-4)GlcNAc(b1-2)Man(a1-3)[GlcNAc(b1-2)Man(a1-6)]Man(b1-4)GlcNAc(b1-4)GlcNAc
# Method in brief: as §1
# [16] = molecular target: Neu5Ac(a2-6)Gal(b1-4)GlcNAc(b1-2)Man(a1-3)[GlcNAc(b1-2)Man(b1-4)GlcNAc(b1-2)Man(a1-6)]Man(b1-4)GlcNAc(b1-4)GlcNAc
# Method in brief: as §1
# [17] = molecular target: Neu5Ac(a2-6)Gal(b1-4)GlcNAc(b1-2)Man(a1-3)[Neu5Ac(a2-6)Gal(b1-4)GlcNAc(b1-2)Man(a1-6)]Man(b1-4)GlcNAc(b1-4)GlcNAc
# Method in brief: as §1
# [18] = molecular target: Neu5Ac(a2-6)Gal(b1-4)GlcNAc(b1-2)Man(a1-6)[Gal(b1-4)GlcNAc(b1-2)Man(a1-3)]Man(b1-4)GlcNAc(b1-4)GlcNAc
# Method in brief: as §1
# [19] = molecular target: Neu5Ac(a2-6)Gal(b1-4)GlcNAc(b1-2)Man(a1-6)[GlcNAc(b1-2)Man(a1-3)]Man(b1-4)GlcNAc(b1-4)GlcNAc
# Method in brief: as §1
# [20] = molecular target: Neu5Ac(a2-6)Gal(b1-4)GlcNAc(b1-3)Gal(b1-4)GlcNAc
# Method in brief: as §1
# [21] = molecular target: Neu5Ac(a2-6)Gal(b1-4)GlcNAc(b1-3)Gal(b1-4)[Fuc(a1-3)]GlcNAc(b1-3)Gal(b1-4)[Fuc(a1-3)]GlcNAc
# Method in brief: as §1
# [22] = molecular target: Neu5Ac(a2-6)Gal(b1-4)GlcNAc6S
# Method in brief: as §1
# Neu5Ac(a2-6)GalNAc = molecular target: Neu5Ac(a2-6)GalNAc
# Method in brief: as §1
# [23] = molecular target: Neu5Ac(a2-6)GalNAc(b1-4)GlcNAc
# Method in brief: as §1
# Neu5Ac(a2-8)Neu5Ac = molecular target: Neu5Ac(a2-8)Neu5Ac
# Method in brief: as §1
# [24] = molecular target: Neu5Ac(a2-8)Neu5Ac(a2-3)Gal(b1-4)Glc
# Method in brief: as §1
# [25] = molecular target: Neu5Ac(a2-8)Neu5Ac(a2-3)[GalNAc(b1-4)]Gal(b1-4)Glc
# Method in brief: as §1
# [26] = molecular target: Neu5Ac(a2-8)Neu5Ac(a2-8)Neu5Ac
# Method in brief: as §1
# [27] = molecular target: Neu5Ac(a2-8)Neu5Ac(a2-8)Neu5Ac(a2-3)Gal(b1-4)Glc
# Method in brief: as §1
# [28] = molecular target: Neu5Ac(a2-8)Neu5Ac(a2-8)Neu5Ac(a2-3)[GalNAc(b1-4)]Gal(b1-4)Glc
# Method in brief: as §1
# [29] = molecular target: Neu5Ac(a2-8)Neu5Ac(a2-8)Neu5Ac(a2-8)Neu5Ac(a2-3)[GalNAc(b1-4)]Gal(b1-4)Glc
# Method in brief: as §1
# [30] = molecular target: Neu5Ac(b2-6)Gal(b1-4)GlcNAc
# Method in brief: as §1
# Neu5Ac(b2-6)GalNAc = molecular target: Neu5Ac(b2-6)GalNAc
# Method in brief: as §1
# [31] = molecular target: Neu5Ac9Ac(a2-6)Gal(b1-4)GlcNAc
# Method in brief: as §1
# [32] = molecular target: Neu5Gc(a2-3)Gal(b1-3)GlcNAc
# Method in brief: as §1
# [33] = molecular target: Neu5Gc(a2-3)Gal(b1-3)[Fuc(a1-4)]GlcNAc
# Method in brief: as §1
# Neu5Gc(a2-3)Gal(b1-4)Glc = molecular target: Neu5Gc(a2-3)Gal(b1-4)Glc
# Method in brief: as §1
# [34] = molecular target: Neu5Gc(a2-3)Gal(b1-4)GlcNAc
# Method in brief: as §1
# [35] = molecular target: Neu5Gc(a2-3)Gal(b1-4)[Fuc(a1-3)]GlcNAc
# Method in brief: as §1
# [36] = molecular target: Neu5Gc(a2-6)Gal(b1-4)GlcNAc
# Method in brief: as §1
# Neu5Gc(a2-6)GalNAc = molecular target: Neu5Gc(a2-6)GalNAc
# Method in brief: as §1
# [37] = molecular target: Neu5Gc(b2-6)Gal(b1-4)GlcNAc
# Method in brief: as §1
binder,measurement,setting,value
B1,glycan array binding signal (z-score),[1],-0.431
same,glycan array binding signal (z-score),[2],-0.138
same,glycan array binding signal (z-score),[3],-0.092
same,glycan array binding signal (z-score),[4],-0.591
same,glycan array binding signal (z-score),[5],-0.211
same,glycan array binding signal (z-score),[6],-0.027
same,glycan array binding signal (z-score),[7],-0.563
same,glycan array binding signal (z-score),[8],-0.413
same,glycan array binding signal (z-score),Neu5Ac(a2-3)GalNAc,-0.606
same,glycan array binding signal (z-score),[9],0.055
same,glycan array binding signal (z-score),[10],-0.477
same,glycan array binding signal (z-score),[11],-0.46
same,glycan array binding signal (z-score),[12],-0.512
same,glycan array binding signal (z-score),Neu5Ac(a2-6)Gal,-0.619
same,glycan array binding signal (z-score),Neu5Ac(a2-6)Gal(b1-4)Glc,0.226
same,glycan array binding signal (z-score),[13],-0.158
same,glycan array binding signal (z-score),[14],-0.129
same,glycan array binding signal (z-score),[15],-0.23
same,glycan array binding signal (z-score),[16],-0.629
same,glycan array binding signal (z-score),[17],-0.439
same,glycan array binding signal (z-score),[18],-0.254
same,glycan array binding signal (z-score),[19],-0.105
same,glycan array binding signal (z-score),[20],-0.102
same,glycan array binding signal (z-score),[21],-0.426
same,glycan array binding signal (z-score),[22],-0.125
same,glycan array binding signal (z-score),Neu5Ac(a2-6)GalNAc,-0.024
same,glycan array binding signal (z-score),[23],-0.545
same,glycan array binding signal (z-score),Neu5Ac(a2-8)Neu5Ac,-0.39
same,glycan array binding signal (z-score),[24],0.162
same,glycan array binding signal (z-score),[25],-0.385
same,glycan array binding signal (z-score),[26],0.243
same,glycan array binding signal (z-score),[27],-0.444
same,glycan array binding signal (z-score),[28],0.747
same,glycan array binding signal (z-score),[29],-0.493
same,glycan array binding signal (z-score),[30],-0.471
same,glycan array binding signal (z-score),Neu5Ac(b2-6)GalNAc,-0.523
same,glycan array binding signal (z-score),[31],-0.353
same,glycan array binding signal (z-score),[32],-0.078
same,glycan array binding signal (z-score),[33],-0.274
same,glycan array binding signal (z-score),Neu5Gc(a2-3)Gal(b1-4)Glc,-0.053
same,glycan array binding signal (z-score),[34],-0.549
same,glycan array binding signal (z-score),[35],-0.473
same,glycan array binding signal (z-score),[36],-0.2
same,glycan array binding signal (z-score),Neu5Gc(a2-6)GalNAc,-0.411
same,glycan array binding signal (z-score),[37],-0.417
